The source of these data is ChEMBL document CHEMBL4888484, “Replenishing the malaria drug discovery pipeline: Screening and hit evaluation of the MMV Hit Generation Library 1 (HGL1) against asexual blood stage Plasmodium falciparum ,using a nano luciferase reporter read-out” (2022).

The campaign covered roughly 150,000 compounds. About 540 (0.36%) showed an effect of 50% or more. The list shows a part of the results.

The assay deals with Plasmodium falciparum. The assay is described as follows: Primary screen in NF54 nanoGlo assay, in single point, at 2uM, 72h; a lower Z score goes with more inhibition. Conditions: timepoint 72 hour. It counts as functional, Erythrocyte.
For the compound `O=C(O)[C@@H]1CCCN1C(=O)CC1CCC(C(F)(F)F)CC1` (stereo partly specified), the “% Inhibition” value is recorded as -13% and the Z score is 1.51.
`CN1C(=O)C(C)(C)c2cc(S(=O)(=O)N3CCC[C@H](C(=O)NCc4ccccc4Cl)C3)ccc21`: the “% Inhibition” value is -12% and the Z score came to 1.13.
With `CN1CCN(c2ccccc2NC(=O)N2CCn3c(n[nH]c3=O)C2)CC1`, the “% Inhibition” value is reported as -3% and the Z score is recorded as 0.46.
In the same order, the values of `Cc1nc2cc(N(C)C(=O)c3ccccc3Cl)ccc2[nH]1` are -8% and 1.31.
In the same order, the values of `COc1ccc(CN2CCN(C)CC23CCCCC3)c(OC)c1` are 14% and -1.83.
Consider `O=C(CN1CCOC1=O)N1CCC(CCC(=O)N2CCc3ccccc3C2)CC1`, for which the “% Inhibition” value is -5% and the Z score worked out at 0.95.
In the same order, the values of `O=C(Nc1nncs1)[C@@H]1CC=CCC1` are -51% and 5.97.
Take `CCS(=O)(=O)N1CCC[C@H](n2c(C)cnc2C2CCOCC2)C1`: the “% Inhibition” value is given as -23% and the Z score is listed as 2.92.
On to `Cc1noc(C)c1NC(=O)CC[C@H]1CCCO1`, for which the “% Inhibition” value is -34% and the Z score came to 4.
As to `CN1CCN(C(=O)c2ccc3c(c2)N(Cc2ccc(F)cc2)C(=O)CO3)CC1`, the “% Inhibition” value stood at 1% and the Z score is -0.2.
With `COCCN(CCC(=O)N1CCOCC1)C(=O)c1cc(-c2ccccc2OC)on1`, the “% Inhibition” value came out at 9% and the Z score is reported as -1.09.
For `CC(=O)Nc1ccc(-n2ccnc2-c2c(C)ccc3ncccc23)cc1` the same measures were 1% and -0.14.
Consider `Cc1nn2c(Nc3ccc(Cl)cc3)nc3ccccc3c2nc1=O`, for which the “% Inhibition” value is -15% and the Z score is given as 1.61.
On to `COc1cccc(C2=C[C@@H](c3ccc(Cl)cc3Cl)N3N=CNC3=N2)c1`, for which the “% Inhibition” value is given as -3% and the Z score stood at 0.28.
For the compound `CC1CCC(N(C[C@H]2CCCO2)C(=O)CC2(O)CCCC2)CC1` (stereo partly specified), the “% Inhibition” value was -4% and the Z score is recorded as 0.58.
Turning to `O=C(Cc1csc(NC(=O)c2ccco2)n1)NC(c1ccccc1)c1ccccc1`, the “% Inhibition” value was -7% and the Z score is 1.29.
Regarding `c1ccc2c(c1)CC(NCc1ccc3c(c1)OCO3)C2`, the “% Inhibition” value is reported as -11% and the Z score stood at 2.13.
With `CN(Cc1ncnn1Cc1c(F)cccc1Cl)[C@H]1CCS(=O)(=O)C1`, the “% Inhibition” value is on record as -16% and the Z score was 3.05.
With `CNC[C@@H]1C[C@H](F)CN1c1nc(C)c(C)s1`, the “% Inhibition” value is -6% and the Z score came to 0.63.
With `C[C@@H](NC(=O)c1cc(-c2ccccc2)n[nH]1)c1nnc2ccccn12`, the “% Inhibition” value came out at 5% and the Z score is reported as -0.68.
Take `CC(CNC(C)c1cnn(C(C)C)c1)c1ccsc1` (stereo unspecified): the “% Inhibition” value was -10% and the Z score is 1.81.
With `O=C(c1ccc(F)c(Cl)c1)N1CCC(n2cnnc2C2CC2)CC1`, the “% Inhibition” value was -9% and the Z score worked out at 1.63.
`Cc1cc(C(=O)N(Cc2ccccc2)CC2(O)CCCC2)[nH]n1`: the “% Inhibition” value came out at 2% and the Z score is reported as -0.27.
As for `CCOC(=O)N1CCN(C(=O)CCc2n[nH]c(-c3ccc(OCCOC)c(OC)c3)nc2=O)CC1`, the “% Inhibition” value is recorded as -13% and the Z score was 1.36.
For `O=S(=O)(NC1(c2ccccc2F)CC1)c1cccnc1` the same measures were -6% and 0.75.
With `Cc1nc(C)n(CCCNC(=O)Nc2ccc3c(c2)N(C)C(=O)[C@H](C)O3)n1`, the “% Inhibition” value is listed as -5% and the Z score was 0.5.
For the compound `Cc1c(NC(=O)COC(=O)Cc2ccc(Cl)cc2)c(=O)n(-c2ccccc2)n1C`, the “% Inhibition” value is -5% and the Z score came out at 0.89.
For `CC(C)(C)c1cc(NC(=O)CCCc2ccccc2)n([C@H]2CCS(=O)(=O)C2)n1` the same measures were -2% and 0.38.
As for `CCN(Cc1nccn1C)C(=O)c1cc(C(C)(C)C)nc(=O)[nH]1`, the “% Inhibition” value came to 13% and the Z score was -1.72.
For `NC(=O)C1CN(C(=O)CC2CC3CCC2C3)CCN1C1CC1` (stereo unspecified) the same measures were -5% and 0.78.
Take `CCc1ncc(NC(=O)N2CCN(CC(F)(F)F)C[C@H](C)C2)cn1`: the “% Inhibition” value amounted to 2% and the Z score is listed as -0.35.
On to `O=C(c1cc2cc(F)ccc2[nH]1)N1CCC(CO)(CCCc2ccccc2)CC1`, for which the “% Inhibition” value is -9% and the Z score came to 1.08.
Consider `O=C(NCCCc1ccccc1)[C@@]1(CCO)CC12CCOCC2`, for which the “% Inhibition” value worked out at 10% and the Z score is recorded as -2.01.
Consider `CNC(=O)c1[nH]nc2c1CN(Cc1coc(-c3ccccc3)n1)CC2`, for which the “% Inhibition” value was -13% and the Z score turned out to be 2.08.
Take `CC1CN(Cc2nc(-c3cccs3)no2)C(C)CO1` (stereo unspecified): the “% Inhibition” value was -5% and the Z score came to 0.94.
As to `CC(C)c1cc(C(=O)N2CCN(c3cccc(Cl)c3)CC2)nc2ccnn12`, the “% Inhibition” value was -4% and the Z score is given as 0.68.
On to `O=C(NCc1ccc2occc2c1)NC1CCOC2(CCS(=O)(=O)C2)C1` (stereo unspecified), for which the “% Inhibition” value is given as -7% and the Z score is 0.87.
Consider `Cn1cc(-c2ccc(F)cc2)c2nc[nH]c(=O)c21`, for which the “% Inhibition” value amounted to 36% and the Z score is -4.12.
In the same order, the values of `Cc1nc(C2(NCC(=O)Nc3ccc(F)cc3F)CCC2)no1` are -14% and 1.79.
As for `CC(=C(F)C(=O)N(CCCO)C(C)C)C1CC1`, the “% Inhibition” value was 4% and the Z score was -0.65.
Regarding `Cc1c(C(=O)N2CCCCCC2)sc2ncc(C(=O)N3CCCCCC3)cc12`, the “% Inhibition” value was 3% and the Z score is on record as -0.57.
`CCN(Cc1cnn(CC)c1)C[C@]1(O)CCCN2CCCC[C@@H]21`: the “% Inhibition” value is on record as -13% and the Z score is 1.76.
For `Cc1nccn1Cc1ccccc1NC(=O)[C@@H](N)Cc1c[nH]c2ccccc12` the same measures were -9% and 1.04.
